Data taken from PubChem BioAssay AID686978 (National Center for Advancing Translational Sciences (NCATS), 2013).
The campaign covered roughly 420,000 compounds. About 64,000 (15%) were called active. Inconclusive means that the source gave no clear call. Such entries were picked first, then a sample of the others. Calls follow the shape of the dose curve; as a rule, active = well fitted inhibition curve with a large enough effect; inconclusive = small, poorly fitted or top-dose-only effect; inactive = flat fitted curve, though single readings scatter. No potency is given beside an inconclusive call; the fits are too rough.

Assay: qHTS for Inhibitors of human tyrosyl-DNA phosphodiesterase 1 (TDP1): qHTS in cells in absence of CPT; also: nearly all actives have a fitted effect of over 55% in size
Conditions: DT40 Tdp1-/- hTDP1 cells, no CPT, ATP luminescence, 48 h; series mostly up to 46.2 µM
How it was run: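 No-CPT arm: Tdp1-/-;hTDP1 DT40 cells (400/well) plus compounds, incubated ≥48 hr at 37 °C. Readout CellTiter-Glo luminescence.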
Potency is read from the fitted curve at half-maximal effect; tags tell the direction and shape of the fitted curve.

SMILES | Potency
O=C(O)CCn1[nH]c(=O)ccc1=O | inactive
CCOc1[nH]n(-c2ccc(Cl)cc2)c(=O)c1C=Nc1ccc(OC)cc1 | inconclusive [inhibitor, single point]
CCCOc1ccc(C(=O)NNC(=S)NC(=O)c2cc(-c3ccc(Cl)cc3)nc3ccccc23)cc1 | active: 11.6 µM
O=S(=O)(c1ccccc1Cl)N1CCC(O)(c2ccc3c(c2)OCO3)CC1 | inconclusive [inhibitor, partial curve]
CCc1ccc(C2C(C(=O)Nc3ccccc3OC)=C(C)Nc3c(C(=O)Nc4ccc(C)cc4)cnn32)cc1 (configuration not stated) | inconclusive [inhibitor, single point]
O=C(N/N=C/c1cn(-c2ccccc2)nc1-c1cc2ccccc2o1)c1cccnc1 | active: 5.17 µM
O=C(CSc1nnc(-c2ccco2)o1)N1c2ccccc2CCc2ccccc21 | active: 23.1 µM
Cc1ccc(C)c(NC(=O)CSc2nccn2-c2cccc(C)c2C)c1 | active: 20.6 µM
COc1ccc(C(=O)Nc2ccccc2-c2nc3ccccc3s2)cc1OC | inconclusive [inhibitor, single point]
CC(/C=N/NC(=O)c1cc(-c2ccc(Cl)cc2)nc2ccccc12)=C\c1ccco1 | active: 3.26 µM
CC(=O)c1cc2c(cc1NC(=O)c1ccc(-n3nc(C)cc3C)cc1)OCO2 | inconclusive [inhibitor, full curve]
COc1ccc(Sc2nc(-c3ccccn3)ncc2OC)cc1 | active: 3.26 µM
COc1ccc(C2C(C(C)=O)=C(C)N=c3s/c(=C\c4ccc5c(c4)OCO5)c(=O)n32)c(OC)c1 (configuration not stated) | inconclusive [inhibitor, single point]
Cc1cc(NC(=O)c2ccccc2O)nc(C)n1 | inactive
O=S(=O)(c1ccccc1)N1CCC2(CCCN(Cc3ccncc3)C2)CC1 | inactive
COc1ccc(S(=O)(=O)N2CCN(c3ccccc3OC)CC2)cc1C(=O)N1CCCCC1 | inconclusive [inhibitor, single point]
O=C(CCN1C(=O)c2ccccc2S1(=O)=O)Nc1nc2c(s1)CCCC2 | inconclusive [inhibitor, partial curve]
CCOC(=O)c1cn2nc(Oc3ccccc3)ccc2n1 | inconclusive [inhibitor, partial curve]
Cc1ccc(-n2c(Cc3ccccc3)n[nH]c2=S)cc1 | inactive
CCc1cccc(NC(=O)Cn2c(C(=O)OC)cc3sc(Cl)cc32)c1 | inconclusive [inhibitor, single point]
Cc1ccc(-n2c(SCc3ccccc3F)nc3[nH]ncc3c2=O)cc1Cl | active: 14.6 µM
Cc1ccccc1NC(=O)CCc1nnc2ccc(N3CCC4(CC3)OCCO4)nn12 | inactive
Cc1c(C(=O)Nn2cnnc2)oc2ccccc12 | inactive
C/C(=N\NC(=O)CN1CCCCC1)c1cccc([N+](=O)[O-])c1 | inactive

SMILES | Potency
COc1cccc(NC(=O)c2nc(SC)ncc2Cl)c1 | inconclusive [inhibitor, single point]
COc1ccc2cc(C(=O)C3CCCN(C(=O)c4cnccn4)C3)ccc2c1 (configuration not stated) | inconclusive [inhibitor, partial curve, poor fit]
O=c1c2ccccc2nc2n1CCc1ccc(Br)cc1-2 | inconclusive [inhibitor, single point]
O=C1Nc2ccccc2Oc2cc([N+](=O)[O-])cc(Oc3ccccc3)c21 | inconclusive [inhibitor, single point]
CCCCCCN1CCN(C2CN(Cc3cn(CCCC(=O)OC)nn3)S(=O)(=O)C2)CC1 (configuration not stated) | inactive
CCOc1ccc(CCNC(=O)c2ccc(S(=O)(=O)N3CCCC3)cc2)cc1OCC | inconclusive [inhibitor, single point]
Cc1ccc(NC(=O)COC(=O)c2nn(-c3ccc(Cl)cc3)cc2O)cc1 | inconclusive [inhibitor, partial curve]
COC(=O)c1ccc2c(C)c(C(C)(C)O)[nH]c2c1 | inactive
Brc1ccc(-c2nc(-c3ccccn3)no2)o1 | inconclusive [inhibitor, single point]
CC(C)[C@H](CO)NC(=O)[C@H]1O[C@@H](n2ccc(N)nc2=O)[C@H](O)[C@@H]1O | inactive
CN(C)CCOc1ccc(Cl)cc1C(C)(C)C | inactive
O=C(CC1C(=O)NCCN1C(=O)c1ccccc1)Nc1cc(Cl)ccc1Cl (configuration not stated) | inactive
CCN(CC)S(=O)(=O)c1cccc(NC(=O)c2ccccc2Br)c1 | inconclusive [inhibitor, single point]
CCCN(CC(=O)Nc1cccc(Br)c1)CC(=O)Nc1ccc(F)c(F)c1F | inconclusive [inhibitor, single point]
COCc1cccc(-c2csc(C(O)c3ccccc3)n2)c1 (configuration not stated) | inconclusive [inhibitor, partial curve]
O=c1cc(CN2CCN(c3ccccc3F)CC2)c2cc3c(cc2o1)CCCC3 | inconclusive [inhibitor, single point]
O=C(Nc1cccc(F)c1)N1CCCCCC1 | inactive
CN(C(=O)CCn1c(=S)oc2ccccc21)C1CCCCC1 | inconclusive [inhibitor, single point]
O=C(O)c1ccc(NC(=S)NC(=O)c2ccc(-c3ccc(Br)cc3)o2)cc1 | inactive
COc1ccccc1NC(=O)C1=C(C)Nc2nc(-c3cccs3)nn2C1c1cccc(O)c1 (configuration not stated) | inconclusive [inhibitor, single point]
COC(=O)[C@@]1(C)[C@H]2C(=O)N(Cc3ccccc3)C(=O)[C@H]2[C@H]2CN=C(SCC3CC3)N21 | inconclusive [inhibitor, single point]
Cc1ccc(C)c(NS(=O)(=O)c2cc3c(cc2C)n(C)c(=O)c(=O)n3C)c1 | inconclusive [inhibitor, single point]
CCN(CC)S(=O)(=O)c1cccc(C(=O)Nc2ccccc2C(=O)Nc2ccc(Cl)cc2)c1 | active: 18.4 µM
